{"source": "paper PMC12136788", "binders": {"B1": {"name": "chr9:132694550:132694651:+|3pUTR|ENSG00000125484|unk|total|mutant (ssRNA)", "RNA": "GGGAGUUCUACAGUCCGACGAUCUUCCUGAAGAUUACAUAUCAGUGUCCUGCGUUUUUAUCUAAUAUCCGAGCUGAGGUUCCCCGGAAAAUUUUGAAGUGGGGAAGAUUAUGGAGAAAAUGAAAUGGAAAUUUGGGGAGGGUGCAACAGAGGAUUGAGCAUCA"}, "B2": {"name": "chr9:15171111:15171212:-|3pUTR|ENSG00000155158|unk|FALSE|unique (ssRNA)", "RNA": "GGGAGUUCUACAGUCCGACGAUCCUGCUUUAAAUGAUAUGUAAAAUAUCAAUAAUUUUUACACUUAAGAUGUUGGUAAGACCUAGUUUUCUAAUCUCUCUAGCACUGUGAUGUCUCCUUGUAGAUAAUCUGGACCUUGCUUAGCAACAGAGGAUUGAGCAUCA"}, "B3": {"name": "chr8:10764960:10765785:-|three_prime_utr|ENSG00000254093|control|control|control (ssRNA)", "RNA": "GGGAGUUCUACAGUCCGACGAUCCCGGGACUUCACCCUGAAGCCCAAAAAGAGGAGAGGGAAGAAAAAGCUGCAAAAACCAGUAGAGAUAGCAGAGGACGCUACACUAGAAGAAACGCUAGUGAAAAAGAAGAAGAAGAAAGACAACAGAGGAUUGAGCAUCA"}, "B4": {"name": "chr1:225495143:225495244:-|3pUTR|ENSG00000154380|msi1|FALSE|unique (ssRNA)", "RNA": "GGGAGUUCUACAGUCCGACGAUCACAUUAUUAUGAUGGUUUUUGUGCUCUUGUACGUUGGAUGUCUUAAGCUGAGUACAGUUUAGGGGAUCCUUUCUAAUGACAGGAAGGCACUGCUUUCCUCAACACUGUGAUCUGACCUGUCAACAGAGGAUUGAGCAUCA"}, "B5": {"name": "chr1:226361101:226361261:-|3pUTR|ENSG00000143799|msi1|FALSE|unique (ssRNA)", "RNA": "GGGAGUUCUACAGUCCGACGAUCUUUCUUGCCAGGUAGAUAAAACUGACAUAGAGAAAAGGCUGGAGAGAGAUUCUGUUGCAUAGACUAGUCCUAUGGAAAAAACCAAGCUUCGUUAGAAUGUCUGCCUUACUGGUUUCCCCACAACAGAGGAUUGAGCAUCA"}, "B6": {"name": "chrX:103499925:103500756:-|CDS|ENSG00000172476|control|control|control (ssRNA)", "RNA": "GGGAGUUCUACAGUCCGACGAUCUGAGGUCAGCCCUCUGUGCAAUUUCAACAUCAUAGAGUCUUUCACGGAGCUGGCCAGGAUAGUGCUGCUGCGGCACAGGAUGAAUUGGCUCGGGAGGCCGAGCAAGGUACUGAGCUUGCACAACAGAGGAUUGAGCAUCA"}, "B7": {"name": "chr1:116393555:116393656:+|CDS|ENSG00000163399|msi1|total|mutant (ssRNA)", "RNA": "GGGAGUUCUACAGUCCGACGAUCCCCCAACACAUCGGAGCCCCAACACCUGUUGGUGAUGAAGGGCGCCCCAGAAAGGAUCCCCGACCGUUGCAGCUCUAUCCUCCUCCACGGCAAGGAGCAGCCCCUGGAUGAGGAGCUGAACAACAGAGGAUUGAGCAUCA"}, "B8": {"name": "chr6:134169319:134169461:-|3pUTR|ENSG00000118515|unk|FALSE|unique (ssRNA)", "RNA": "GGGAGUUCUACAGUCCGACGAUCUGCAUUCCUGAUAAUUGUAUGUAUUGUAUAAAGAACGUCUGUACAUUGGGUUAUAACACUAGUAUAUUUAAACUUACAGGCUUAUUUGUAAUGUAAACCACCAUUUUAAUGUACUGUAAUCAACAGAGGAUUGAGCAUCA"}, "B9": {"name": "chr22:43879677:43880794:-|three_prime_utr|ENSG00000100341|control|control|control (ssRNA)", "RNA": "GGGAGUUCUACAGUCCGACGAUCGAGAAAGGAGGACAGCCACAGAGACACAUGUCUUACUUUCAGAAUUUCCACGGGGGGACUAGGAGGGCAGCAUUGCUGGGGAGAGGGGCUCCUGUUCUGCCGUGGAGCUGCCCACGGAGCCAACAGAGGAUUGAGCAUCA"}, "B10": {"name": "chr14:75134463:75134564:-|3pUTR|ENSG00000170348|msi1|total|mutant (ssRNA)", "RNA": "GGGAGUUCUACAGUCCGACGAUCCUGUUUGGACUAUGUUUUCUUUUCUUCUCCCACUUGCUCAGCAGCUUGGGCUUCCAUUCCCGUUCUUUUACCAAGAUUUUUGUGUGACCAUGUUGACUUCAUUUGGAUUGCCCUCUUUCACAACAGAGGAUUGAGCAUCA"}, "B11": {"name": "ENSG00000249115:stop:overlap|stop_codon|ENSG00000249115|stop_codon|NA|stop_codon (ssRNA)", "RNA": "GGGAGUUCUACAGUCCGACGAUCACAGUCCACAGGUGAGAAGCAUAUGCUACAAGAUUCUCUUUCAUCCGAAAAAUGACUUGUAGAUCUUCUGCUCUAAGCCCAACCAGGUGCUGGGUGAUGCUGGGGACAAUGGGUCACAAGCAACAGAGGAUUGAGCAUCA"}, "B12": {"name": "chr1:65389253:65389354:+|CDS|ENSG00000116675|unk|FALSE|unique (ssRNA)", "RNA": "GGGAGUUCUACAGUCCGACGAUCGUUAGAUGCAUGUGAUGUACCAGAAAAAUAUCCUCAGCUAUUUCAGGUGACACUGGAUGUAGAACUACAGCCCCAUGACAAAGUAAUAGACUUAACUCCACCAUGGGAACAUUACUGCACCAACAGAGGAUUGAGCAUCA"}, "B13": {"name": "chr21:25881051:25881209:-|3pUTR|ENSG00000142192|msi1_unk|total|mutant (ssRNA)", "RNA": "GGGAGUUCUACAGUCCGACGAUCUUUUUUUUCCAUGACUGCAUUUUACUGUACAGAUUGCUGCUUCUGCUAUAUUUGUGAUACCGGAAUUAAGAGGAUACACACGUUUGUUUCUUCGUGCCUGUUUUAUGUGCACACAUCCGGCAACAGAGGAUUGAGCAUCA"}, "B14": {"name": "chr4:119293926:119294030:+|3pUTR|ENSG00000145390|unk|total|mutant (ssRNA)", "RNA": "GGGAGUUCUACAGUCCGACGAUCGAUGGAAUUUAAUUUUGCUCCCCGAAUUUUUGUCUUCAGAAUAUCCCGUUAAGAUAAAUCCGGCCUUUGACUAUUACCGGUAUUCAUAAAUGCUACUUCCGCCAUGUAAGUUAAAAAGUUCAACAGAGGAUUGAGCAUCA"}}, "note": "Some of the results follow.", "data": [{"target": "MSI1 full-length (mouse, UniProt Q61474 1-362)", "sequence (Q61474 whole entry)": "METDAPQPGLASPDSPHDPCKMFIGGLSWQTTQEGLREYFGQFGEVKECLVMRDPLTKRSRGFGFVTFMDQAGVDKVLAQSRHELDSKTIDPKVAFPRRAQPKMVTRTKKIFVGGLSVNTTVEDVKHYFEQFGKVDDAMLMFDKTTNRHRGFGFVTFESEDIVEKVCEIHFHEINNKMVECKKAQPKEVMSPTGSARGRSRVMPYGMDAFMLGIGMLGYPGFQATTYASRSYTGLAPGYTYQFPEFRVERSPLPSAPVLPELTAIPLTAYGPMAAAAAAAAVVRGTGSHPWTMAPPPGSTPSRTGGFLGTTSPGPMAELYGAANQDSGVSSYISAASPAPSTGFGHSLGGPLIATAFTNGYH", "experiment": "nsRBNS (natural sequence RNA bind-n-seq); RBNS binding buffer (assumed for nsRBNS): 25 mM Tris pH 7.5, 150 mM KCl, 3 mM MgCl2, 0.01% Triton X-100, 500 ug/ml BSA, 20 U/ml SUPERase-In, 4 C; UNK is unkempt and MSI1 is Musashi-1; names of the RNAs are library labels; protein concentration not given here; high values mean tight binding", "units": {"binding signal": "enrichment R"}, "values": [{"binder": "B1", "binding signal": 0.579}, {"binder": "B2", "binding signal": 1.69}, {"binder": "B3", "binding signal": 0.921}, {"binder": "B4", "binding signal": 0.214}, {"binder": "B5", "binding signal": 13.1}, {"binder": "B6", "binding signal": 0.432}, {"binder": "B7", "binding signal": 0.318}, {"binder": "B8", "binding signal": 6.9}, {"binder": "B9", "binding signal": 0.603}, {"binder": "B10", "binding signal": 0.405}, {"binder": "B11", "binding signal": 0.543}, {"binder": "B12", "binding signal": 1.65}, {"binder": "B13", "binding signal": 0.295}, {"binder": "B14", "binding signal": 0.611}]}]}
